From PubChem BioAssay (NCI)
“And” between values parts separate entries of the source, which are not always exact repeats. Identical values can stand only once.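 In this assay, cells in 96-well plates receive the compound at five concentrations for 48 hours. Endpoints are linearly interpolated between the surrounding concentrations. Here, GI50 denotes the concentration required for 50% inhibition of growth. The concentration for full growth arrest is given as TGI.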

system: NCI-H322M lung; experiment: NCI anticancer screen, dose series, 48 h

Compound | GI50 | TGI
CCc1ccc2c(c1)N(CCO)C1=C(C(=O)OC1)C2c1cccc(Cl)c1 (stereo not drawn) | 10.8 µM | 28 µM
O=C(COC(=O)c1cccc2c(=O)c3ccccc3[nH]c12)Nc1ccccc1 | – | > 100 µM
COC(=O)/C=C(/OC)[C@H](C)[C@H](/C=C/c1csc(-c2csc(C(C)C)n2)n1)OC | – | > 100 µM
Cn1/c(=N\N=C(\CNCCO)[C@@H](O)[C@@H]2OC(c3ccccc3)OC[C@H]2O)sc2ccccc21 (stereo partly drawn) | – | 36.8 µM
COc1ccc2c(c1OC)OCC(CN(C)C)C2=O (stereo not drawn) | – | > 100 µM
Cc1ccc(C)c2c1CC(Cc1ccccc1C(=O)O)C2=O (stereo not drawn) | – | > 100 µM
Nc1c(C(=O)c2ccc(CCCN3CCOCC3)cc2)cnn1-c1ccc(F)cc1 | > 25 µM | > 25 µM
C[C@]12CC[C@H](O)CC1=CC[C@@H]1[C@@H]2CC[C@]2(C)C(=N/O)/C(=C/c3ccc([N+](=O)[O-])cc3)C[C@@H]12 | – | 15.3 µM
CNc1nnc(CNc2ccc(-c3nnc(NC)n3N)cc2)n1N | – | > 100 µM
CC(C)(C)OC(=O)NC(CO)c1cccc(OCc2ccccc2)c1 (stereo not drawn) | – | > 100 µM
COc1cc(/C=C/C(=O)CC(=O)/C=C/c2ccc(O)c(OC)c2)ccc1O | – | 32.1 µM
O=C1CCCC2C3CC(CN12)C1CCCCN1C3 (stereo not drawn) | – | > 100 µM
Clc1cc2n[se]nc2cc1Cl | – | > 100 µM
CC(=O)[C@@]1(O)[C@H](C)C[C@H]2[C@@H]3C=C(C)C4=Cc5c(cnn5-c5ccccc5)C[C@]4(C)[C@H]3[C@@H](O)C[C@@]21C | 3.73 µM | 15.2 µM
N#CS.N=C=S.N=C=S.[Cu+2].[NH2-].[NH2-].[NH2-].[NH2-].c1ccc2ncccc2c1 | 22.4 µM | 50 µM
Cc1ccc(-c2nc(-c3cnccn3)n(C3OC(CO)C(O)C(O)C3O)n2)cc1 (stereo not drawn) | – | > 100 µM
CCc1cc2c(cc1N1CCC(N3CCOCC3)CC1)C(C)(C)c1[nH]c3cc(C#N)ccc3c1C2=O | 2.35 µM and 1.91 µM and 2.22 µM | 10.4 µM and 5.43 µM and 7.25 µM
CCCCCCCCCCCCCCCCOP(=O)(O)OP(=O)(O)OCC1OC(n2ccc(N)nc2=O)C(O)C1O (stereo not drawn) | – | > 100 µM
S=C(N/N=C(/c1ccccc1)c1ccccn1)N1CCCCCC1 | < 0.001 µM | –
CC[C@]12C=CCN3CC[C@@]4(c5cc(Br)c(OC)cc5N(C)[C@H]4[C@@](O)(C(=O)N[C@@H](Cc4ccc(O)cc4)C(=O)OC)[C@@H]1O)[C@@H]32 | – | 46.2 µM
c1ccc2c(c1)[nH]c1c2nc2ncccn21 | – | > 100 µM
COC(=O)/C=C/c1cn(C(C)=O)c2ccc(Br)cc12 | 34.1 µM | > 100 µM
O=C(COc1ccc(Cl)c(Cl)c1)N(Cc1ccccc1)Cc1ccc[n+](Cc2ccc(Cl)cc2S(=O)(=O)F)c1 | – | > 100 µM

Compound | GI50 | TGI
C=C1C(=O)OC2CC1CCC1(C)OC1CCC(C)=CCCC2(C)O (stereo not drawn) | – | 24 µM
COc1ccc2c(ccc3c(COC(=O)NC(C)C)c(COC(=O)NC(C)C)n(C)c32)c1 | – | 39.8 µM
O[C@@H]1C[C@H]2N3CC[C@@]2(c2cc4c(cc2C3)OCO4)[C@H]2O[C@@H]12 | – | > 100 µM
CCN(CC)CCCC(C)N=c1cc(Nc2cc(=NC(C)CCCN(CC)CC)c3cc(OC)ccc3o2)oc2ccc(OC)cc12 (stereo not drawn) | 1.1 µM | 3.14 µM
CC(=O)Oc1cc2c(OC(C)=O)c(-c3c(C)cc4c(C(C)C)c(OC(C)=O)c(OC(C)=O)cc4c3OC(C)=O)c(C)cc2c(C(C)C)c1OC(C)=O | 6.23 µM and 6.88 µM and 10.4 µM | 16.5 µM and 22.5 µM and 32.8 µM
CC(=O)N1CC(=O)N2C(=O)/C(=C/c3ccc(Cl)cc3)N=C12 | – | > 100 µM
COC(=O)[C@H](Cc1ccc(O)cc1)NC(=O)[C@@H](OC)[C@@H]1Cc2cc3cc(OC4CC(OC5CC(O)C(O)C(C)O5)C(O)C(C)O4)c(C)c(O)c3c(O)c2C(=O)[C@H]1OC1CC(OC2CC(OC3CC(C)(O)C(O)C(C)O3)C(O)C(C)O2)C(O)C(C)O1 (stereo partly drawn) | 0.107 µM | 5.87 µM
COc1c(OC/C=C(\C)CCC=C(C)C)ccc2ccc(=O)oc12 | – | > 100 µM
CCCCN(CCCC)CCCn1c(=O)c2c3ccccc3n(C)c2n2nnc(-c3ccccc3)c12 | 28.8 µM | > 100 µM
COc1cc(O)c2c(c1)C(=O)c1cc3c(c(O)c1C2=O)C(OC1OC(C)C(O)C(O)C1OC)C(OC)C(C)(O)C3=O (stereo not drawn) | – | 21.5 µM and 8.3 µM
CCCCCCc1nc2nc(Cl)c(Cl)nc2[nH]1 | > 100 µM | > 100 µM
CC(=O)O[C@H]1CCC2[C@@H]3CCC4Cc5nc6c(nc5C[C@]4(C)C3CC[C@@]21C)CC1CC[C@@H]2C(CC[C@@]3(C)C2CC[C@@H]3C(C)CCCC(C)C)[C@@]1(C)C6 (stereo partly drawn) | – | > 100 µM
O=C1OCc2cc3cc4c(cc3c(-c3ccc5c(c3)OCO5)c21)OCO4 (tested in a mixture with another compound) | – | > 100 µM
COC(=O)/C=C(\S/C(=N\n1cc(C(=O)OC)c(C(=O)OC)c1-c1ccc(C)cc1)c1ccc(C)cc1)C(=O)OC | – | > 58.1 µM
CN(C)/C=N/NC(=O)/C(C#N)=C/N(C)C | – | > 100 µM
Cc1nc2c(o1)C(=O)c1ccccc1C2=Nc1ccc(N2CCOCC2)cc1 | – | 31.6 µM
O=c1oc2ccc(-n3c(=O)c4ccccc4c4ccccc4c3=O)cc2c2ccccc12 | – | > 100 µM
COC(=O)/C=C\C(C#N)(C#N)N=Cc1ccc(Br)s1 | – | 33.2 µM
C/C(=C(\c1ccc(OCCN2CCCCCC2)cc1)c1ccc(OC(=O)Cc2ccccc2)cc1)c1ccc(Cl)cc1 | 4.29 µM | 14.4 µM
c1ccc(C[N+]23CN4CN(CN(C4)C2)C3)cc1 | – | > 100 µM
CC1=C([Te]c2ccc(O)cc2)C(=O)c2ccccc2C1=O | 2.31 µM | 9.49 µM
COc1cccc(Cc2cc(=O)c3ccc(C)nc3[nH]2)c1 | – | > 100 µM
